# From PubChem BioAssay (NCATS)
# Inconclusive results, whose numbers are uncertain, are shown with a selection of clear calls. No potency is given beside an inconclusive call; the fits are too rough. Activity calls are given as the source filed them. The call rests on the fitted dose curve; in most records, active means well fitted inhibition curve with a large enough effect; inconclusive means small, poorly fitted or top-dose-only effect; inactive means flat fitted curve, though single readings scatter.
# Assay: BET inhibitor-based combinations targeting novel dependencies in MECOM-rearranged (r) AML: AML-191 cell line (AID 2202236; further: nearly all actives have a fitted effect of over 35% in size;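 on viability (% of control): plate controls were vehicle wells for no effect and wells without cells for full effect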)
# Details: AML-191 viability, CellTiter-Glo luminescence, 48 h; series mostly up to 46 µM
# Summary of the method: (§1)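 Cells were plated at 500 per well and exposed to an 11-point dose series of each drug for 48 hr. Viability was measured by CellTiter-Glo luminescence, normalized to DMSO and empty-well controls, and summarized as AUC and per-cell-line Z-AUC.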
# Potency means the concentration at half of the fitted maximal effect; tags describe the fitted curve by direction and shape.
SMILES,Potency,viability (% of control)
Cn1nnc2c(C(N)=O)ncn2c1=O,"inconclusive [inhibitor, partial curve]",
O=C(O)CCNC(=O)c1ccc(N=Nc2ccc(O)c(C(=O)O)c2)cc1,inactive,
CCOCOC[C@H](C[C@H](C)C(=O)NO)NC(=O)c1ccc(Oc2ccccc2)cc1,"inconclusive [inhibitor, partial curve]",
Cc1ccc(Nc2cc(N[C@@H]3CCCC[C@@H]3N)nnc2C(N)=O)nc1C,active: 18.6 µM,
CC1CCC(n2c3cnccc3c3cnc(Nc4ccc5c(n4)CCN(C(=O)CO)C5)nc32)CC1 (configuration not stated),"inconclusive [inhibitor, full curve, poor fit]",
Nc1nc(OC(c2ccc(-c3cccc(F)c3)cc2)C(F)(F)F)cc(-c2ccc(C[C@@H](N)C(=O)O)cc2)n1 (some centres not stated),inactive,
Cn1ncc(NC(=O)c2nc(-c3c(F)cccc3F)sc2N)c1N1CC[C@@H](N)[C@H](F)CC1,"inconclusive [inhibitor, partial curve]",
Cc1ncsc1-c1ccc([C@H](C)NC(=O)[C@@H]2C[C@@H](O)CN2C(=O)[C@@H](NC(=O)COCCCOCCNC(=O)C[C@@H]2N=C(c3ccc(Cl)cc3)c3c(sc(C)c3C)-n3c(C)nnc32)C(C)(C)C)cc1,active: 0.209 µM,
C=C(C)[C@@H]1CC[C@]2(C(=O)O)CC[C@]3(C)[C@H](CC[C@@H]4[C@@]5(C)CC[C@H](O)C(C)(C)[C@@H]5CC[C@]43C)[C@@H]12,inactive,
O=C([O-])C[O-].[Pt+2],inactive,
Cn1c(=O)c2c(ncn2CC(O)CO)n(C)c1=O (configuration not stated),inactive,
c1ccc2c(-c3cnn4cc(-c5ccc(OCCN6CCOCC6)cc5)cnc34)ccnc2c1,"inconclusive [inhibitor, partial curve]",
Cc1cc2c(cc1C1(c3ccc(C(=O)O)cn3)CC1)C(C)(C)CCC2(C)C,inactive,
CCCS(=O)(=O)Nc1ccc(F)c(C(=O)c2c[nH]c3ncc(-c4ccc(Cl)cc4)cc23)c1F,"inconclusive [inhibitor, partial curve]",
CC(C)(O)c1coc(S(=O)(=O)NC(=O)Nc2c3c(cc4c2CCC4)CCC3)c1,inactive,
CC(=O)NC(CS)C(=O)O (configuration not stated),inactive,
O=[N+]([O-])c1cn2c(n1)OC[C@@H](OCc1ccc(OC(F)(F)F)cc1)C2,inactive,
C/C=C(/C)C(=O)O[C@H]1C(C)=CC23C(=O)C(C=C(CO)[C@@H](O)[C@]12O)[C@H]1[C@@H](C[C@H]3C)C1(C)C (some centres not stated),"inconclusive [inhibitor, full curve]",
CC1(C)Cc2c(sc(NC(=S)NC(=O)c3ccccc3)c2C(=O)O)CO1,inactive,
CN(CCOc1ccc(-c2ccc3c(c2)OCO3)cc1C(C)(C)C)CC(=O)O,"inconclusive [inhibitor, partial curve]",
COc1c(OCCCN2CCOCC2)ccc2c3n(c(=NC(=O)c4cnc(N)nc4)nc12)CCN3,"inconclusive [inhibitor, full curve]",
Cc1ccc(NC(=O)[C@H]2CCCN(C(=O)c3c(C)cccc3F)[C@H]2c2ccc(NC3CCCC3)cc2)cc1C(F)(F)F,inactive,
O=c1cc(-c2ccccc2)oc2cc(O)cc(O)c12,"inconclusive [inhibitor, partial curve]",
OC[C@H]1O[C@@H](Oc2cc(O)cc(/C=C/c3ccc(O)cc3)c2)[C@H](O)[C@@H](O)[C@@H]1O,inactive,
COCCNc1cc(NC(=O)N2CCCc3cc(CN4CCN(C)CC4=O)c(C=O)nc32)ncc1C#N,,inactive: 96.5% [at 8.46 µM]
C[C@@H]1N=C(N)NC(N(C)C)=N1,inactive,
Cc1ccc(S(=O)(=O)NC(=O)NN2CC3CCCC3C2)cc1 (configuration not stated),inactive,
CCOC(=O)[C@H](CCc1ccccc1)N[C@H]1CCc2ccccc2N(CC(=O)O)C1=O,inactive,
C[C@H](CCC(=O)O)[C@H]1CC[C@H]2[C@@H]3[C@H](O)C[C@@H]4C[C@H](O)CC[C@]4(C)[C@H]3CC[C@]12C,inactive,
Cn1c(-c2ccccc2C(F)(F)F)nnc1C12CCC(c3noc(C4CC(F)(F)C4)n3)(CC1)CC2,inactive,

# Assay: BET inhibitor-based combinations targeting novel dependencies in MECOM-rearranged (r) AML: AML-194 cell line (AID 2202237; further: nearly all actives have a fitted effect of over 40% in size;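 on viability (% of control): plate controls were vehicle wells for no effect and wells without cells for full effect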)
# Details: AML-194 (MECOM-r AML) viability, CellTiter-Glo, 48 h; series mostly up to 46 µM
# Summary of the method: as §1
row,SMILES,Potency
1,Cn1nnc2c(C(N)=O)ncn2c1=O,"inconclusive [inhibitor, partial curve]"
2,C[C@]12CC[C@H](O)CC1=CC[C@@H]1[C@@H]2CC[C@]2(C)C(c3cccnc3)=CC[C@@H]12,inactive
3,CC1CCC(n2c3cnccc3c3cnc(Nc4ccc5c(n4)CCN(C(=O)CO)C5)nc32)CC1 (configuration not stated),active: 1.21 µM
4,c1ccc2c(-c3cnn4cc(-c5ccc(OCCN6CCOCC6)cc5)cnc34)ccnc2c1,"inconclusive [inhibitor, partial curve]"
5,CN1C(N)=N[C@](C)(c2cc(NC(=O)c3ccc(F)cn3)ccc2F)CS1(=O)=O,"inconclusive [inhibitor, full curve, poor fit]"
6,C/C=C(/C)C(=O)O[C@H]1C(C)=CC23C(=O)C(C=C(CO)[C@@H](O)[C@]12O)[C@H]1[C@@H](C[C@H]3C)C1(C)C (some centres not stated),"inconclusive [inhibitor, full curve, poor fit]"
7,CC1(C)Cc2c(sc(NC(=S)NC(=O)c3ccccc3)c2C(=O)O)CO1,inactive
8,CC(C)=CC[C@@H](O)C1=CC(=O)c2c(O)ccc(O)c2C1=O,active: 10.5 µM
9,COc1c(OCCCN2CCOCC2)ccc2c3n(c(=NC(=O)c4cnc(N)nc4)nc12)CCN3,"inconclusive [inhibitor, full curve]"
10,C=Cc1c(C)c2cc3nc(cc4[nH]c(cc5nc(cc1[nH]2)C(C)=C5CCC(=O)O)c(CCC(=O)OC)c4C)[C@@]1(C)C3=CC=C(C(=O)OC)[C@H]1C(=O)OC,inactive
11,O=c1cc(-c2ccccc2)oc2cc(O)cc(O)c12,"inconclusive [inhibitor, single point]"
12,Cc1ccc(NS(=O)(=O)c2ccc3c(c2)C2C=CCC2C(c2ccc(C(=O)O)cc2)N3)cc1C (configuration not stated),inactive
13,Cc1c(Cn2c(C)nc3c(C(=O)O)cc(N4CCOCC4)cc32)cccc1C(F)(F)F,inactive
14,C[C@@H]1N=C(N)NC(N(C)C)=N1,inactive
15,CC1(C)[C@@H](O)CC[C@]2(C)[C@H]3C(=O)C=C4[C@@H]5C[C@@](C)(C(=O)O)CC[C@]5(C)CC[C@@]4(C)[C@]3(C)CC[C@@H]12,inactive
16,Cc1cc(-c2cc(OC(=O)c3ccccc3)ccc2Cl)cc2nnc(Nc3ccc(OCCN4CCCC4)cc3)nc12,"inconclusive [inhibitor, single point]"
17,COc1cc2c(cc1O)CCN[C@]21CS[C@@H]2c3c(OC(C)=O)c(C)c4c(c3[C@H](COC1=O)N1[C@@H]2[C@H]2c3c(cc(C)c(OC)c3O)C[C@@H]([C@@H]1O)N2C)OCO4,"inconclusive [inhibitor, full curve, poor fit]"
